Data from article PMC3050892.
No constants are given. Whether binding was seen depends on the method and setting. Some binding calls cover weakened binding; strength is not graded here.

Protein sequences, listed by entry. Tags and fused reporters are not part of them. Lines headed by an entry give the natural chain unless they say otherwise; changes in a name come on top. Chains listed by the source or under a name are the forms on record and can include a tag or linker. Residues count along the entry.
UniProt Q71F23, residues 243-263: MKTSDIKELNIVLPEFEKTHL
stimulated by retinoic acid 13 (A8MT69-2, form named): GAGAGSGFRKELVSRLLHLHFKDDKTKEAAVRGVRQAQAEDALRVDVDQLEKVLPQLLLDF
UniProt Q75QN2, residues 508-816: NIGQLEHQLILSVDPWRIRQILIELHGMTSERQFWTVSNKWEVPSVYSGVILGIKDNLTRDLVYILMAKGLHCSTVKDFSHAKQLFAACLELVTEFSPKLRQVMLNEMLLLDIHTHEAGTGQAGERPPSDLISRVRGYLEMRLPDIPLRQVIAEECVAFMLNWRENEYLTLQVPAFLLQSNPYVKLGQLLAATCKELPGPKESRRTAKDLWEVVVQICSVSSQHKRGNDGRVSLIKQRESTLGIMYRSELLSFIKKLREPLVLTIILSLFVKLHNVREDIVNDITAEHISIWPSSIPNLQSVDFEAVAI

T1: human FEZ2 (207–353) (human) (UniProt Q9UHY8)
T1 sequence: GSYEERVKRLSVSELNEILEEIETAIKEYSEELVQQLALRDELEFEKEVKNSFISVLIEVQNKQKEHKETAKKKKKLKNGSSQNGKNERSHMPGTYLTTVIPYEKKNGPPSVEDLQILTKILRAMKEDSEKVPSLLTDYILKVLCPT

T2: human FEZ1 (221–392) (human) (UniProt Q99689)
T2 sequence: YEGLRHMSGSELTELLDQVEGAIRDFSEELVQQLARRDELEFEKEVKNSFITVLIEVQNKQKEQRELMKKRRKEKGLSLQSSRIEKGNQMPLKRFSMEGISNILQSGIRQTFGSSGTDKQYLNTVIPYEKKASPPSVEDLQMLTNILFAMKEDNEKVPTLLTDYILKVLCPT

B1: Platelet receptor Gi24 precursor (domain or fragment, UniProt Q9H7M9 215-311)
chain: VYKQRQAASNRRAQELVRMDSNIQGIENPGFEASPPAQGIPEAKVRHPLSYVAQRQPSESGRHLLSEPSTPLSPPGPGDVFFPSLDPVPDSPNFEVI
B2: SAP30-like (protein, UniProt Q9HAJ7-1 1-183)
chain: MNGFSTEEDSREGPPAAPAAAAPGYGQSCCLIEDGERCVRPAGNASFSKRVQKSISQKKLKLDIDKSVRHLYICDFHKNFIQSVRNKRKRKTSDDGGDSPEHDTDIPEVDLFQLQVNTLRRYKRHYKLQTRPGFNKAQLAETVSRHFRNIPVNEKETLAYFIYMVKSNKSRLDQKSEGGKQLE
B3: Pigment epithelium-derived factor precursor (PEDF) (domain or fragment, UniProt P36955 16-267)
chain: HSSCQNPASPPEEGSPDPDSTGALVEEEDPFFKVPVNKLAAAVSNFGYDLYRVRSSTSPTTNVLLSPLSVATALSALSLGAEQRTESIIHRALYYDLISSPDIHGTYKELLDTVTAPQKNLKSASRIVFEKKLRIKSSFVAPLEKSYGTRPRVLTGNPRLDLQEINNWVQAQMKGKLARSTKEIPDEISILLLGVAHFKGQWVTKFDSRKTSLEDFYLDEERTVRVPMMSDPKAVLRYGLDSDLSCKIAQLP
B4: hypothetical protein LOC119392 isoform a (domain or fragment, UniProt Q86XK3-1 6-245)
chain: KNQDFTFKMESPSDSAVVLPSTPQASANPSSPYTNSSRKQPMSATLRERLRKTRFSFNSSYNVVKRLKVESEENDQTFSEKPASSTEENCLEFQESFKHIDSEFEENTNLKNTLKNLNVCESQSLDSGSCSALQNEFVSEKLPKQRLNAEKAKLVKQVQEKEDLLRRLKLVKMYRSKNDLSQLQLLIKKWRSCSQLLLYELQSAVSEENKKLSLTQLIDHYGLDDKLLHYNRSEEEFIDV
B5: TBC1 domain family, member 25 (domain or fragment, UniProt Q3MII6-1 498-677)
chain: GGRLLRQASLDGLQQLRDNMGSRRDPLVQLPHPAALISSKSLSEPLLNSPDPLLSSFSHPDSPSSSSPPSTQEASPTGDMAVGSPLMQEVGSPKDPGKSLPPVPPMGLPPPQEFGRGNPFMLFLCLAILLEHRDHIMRNGLDYNELAMHFDRLVRKHHLGRVLRRARALFADYLQSEVWD
B6: Translocation protein SEC62 (domain or fragment, UniProt Q99442 2-95)
chain: AERRRHKKRIQEVGEPSKEEKAVAKYLRFNCPTKSTNMMGHRVDYFIASKAVDCLLDSKWAKAKKGEEALFTTRESVVDYCNRLLKKQFFHRAL
B7: DR1-associated protein 1 (domain or fragment, UniProt Q14919-1 1-133)
chain: MPSKKKKYNARFPPARIKKIMQTDEEIGKVAAAVPVIISRALELFLESLLKKACQVTQSRNAKTMTTSHLKQCIELEQQFDFLKDLVASVPDMQGDGEDNHMDGDKGARRGRKPGSGGRKNGGMGTKSKDKKL
B8: zygin 1 isoform 2 (domain or fragment, UniProt Q99689-2 1-89)
chain: MEAPLVSLDEEFEDLRPSCSEDPEEKPQCFYGSSPHHLEDPSLSELENFSSEIISFKSMEDLVNEFDEKLNVCFRNYNAKTENLAPVKN
B9: amplified in osteosarcoma isoform 1 precursor (domain or fragment, UniProt Q13438-1 389-635)
chain: VDDAAEVPQREPEKERGDPERQREMEEEEDEDEDEDEDEDERQLLGEFEKELEGILLPSDRDRLRSEVKAGMERELENIIQETEKELDPDGLKKESERDRAMLALTSTLNKLIKRLEEKQSPELVKKHKKKRVVPKKPPPSPQPTEEDPEHRVRVRVTKLRLGGPNQDLTVLEMKRENPQLKQIEGLVKELLEREGLTAAGKIEIKIVRPWAEGTEEGARWLTDEDTRNLKEIFFNILVPGAEEAQK

What was measured:
[1] = biological target: T1, human FEZ2 (207–353) (human); experiment: two-hybrid; LexA-bait fusions (pBTM116) of FEZ2 (207-353), FEZ1 (221-392) or UNC-76 C-terminus against pACT2 prey clones in yeast L40; clones first isolated in library screens (human fetal brain and bone marrow cDNA) with the FEZ2 bait, then one representative clone of each prey tested one-to-one against the three baits; growth on minimal medium without Trp, Leu, His (10 mM 3-AT in the screen) and beta-galactosidase filter assay; in duplicate
[2] = biological target: T2, human FEZ1 (221–392) (human); experiment: as above

Row | Molecule | binding [1] | binding [2]
1 | MLF1 interacting protein (from UniProt Q71F23-1 243-263) (domain or fragment) | binds | binds
2 | stimulated by retinoic acid 13 (from UniProt A8MT69-2 3-63) (domain or fragment) | binds | binds
3 | integrator complex subunit 8 (from UniProt Q75QN2-1 508-816) (domain or fragment) | binds | binds
4 | B1 | binds | no binding
5 | B2 | binds | binds
6 | B3 | binds | no binding
7 | B4 | binds | binds
8 | B5 | binds | binds
9 | B6 | binds | no binding
10 | B7 | binds | binds
11 | B8 | binds | no binding
12 | B9 | binds | binds
